Source: paper PMC4661828
These are yes or no findings as the source states them, for the method shown. For part of these data: Binding seen in cells or lysates may run through a third protein. Some results given as binding are weak or reduced against the parent protein; the word gives no strength. For part of these data: Where a sequence is shown, tags or fusion partners need not be part of it.

Protein sequences, listed by entry. Tags and fused reporters are not part of them.
UniProt Q9S7Q7: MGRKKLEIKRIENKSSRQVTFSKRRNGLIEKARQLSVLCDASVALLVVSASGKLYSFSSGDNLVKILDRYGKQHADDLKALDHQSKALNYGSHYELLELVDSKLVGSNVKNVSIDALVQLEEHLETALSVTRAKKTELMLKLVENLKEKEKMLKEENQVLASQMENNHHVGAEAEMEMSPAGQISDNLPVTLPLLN
UniProt P82280: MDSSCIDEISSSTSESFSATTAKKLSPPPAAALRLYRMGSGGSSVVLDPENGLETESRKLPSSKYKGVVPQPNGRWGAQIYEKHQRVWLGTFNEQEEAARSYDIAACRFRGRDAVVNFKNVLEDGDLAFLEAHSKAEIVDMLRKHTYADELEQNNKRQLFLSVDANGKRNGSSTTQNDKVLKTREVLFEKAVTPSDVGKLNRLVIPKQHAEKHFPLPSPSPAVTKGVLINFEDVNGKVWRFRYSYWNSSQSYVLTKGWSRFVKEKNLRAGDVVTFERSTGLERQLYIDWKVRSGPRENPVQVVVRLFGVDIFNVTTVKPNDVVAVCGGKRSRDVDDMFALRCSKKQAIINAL
UniProt Q9C6M5: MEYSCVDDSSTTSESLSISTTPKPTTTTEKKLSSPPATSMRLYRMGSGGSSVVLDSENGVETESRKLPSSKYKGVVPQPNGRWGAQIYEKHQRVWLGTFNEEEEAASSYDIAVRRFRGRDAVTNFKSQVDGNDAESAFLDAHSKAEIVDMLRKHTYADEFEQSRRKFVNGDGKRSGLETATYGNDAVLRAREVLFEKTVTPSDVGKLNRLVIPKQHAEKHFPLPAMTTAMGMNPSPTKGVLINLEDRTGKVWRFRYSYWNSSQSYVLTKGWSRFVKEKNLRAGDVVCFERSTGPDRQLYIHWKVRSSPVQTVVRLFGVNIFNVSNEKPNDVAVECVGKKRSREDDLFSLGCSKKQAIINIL

T1: CONSTITUTIVE PHOTOMORPHOGENIC 10 (COP10), full-length, two-hybrid bait in pGBKT7 (Arabidopsis thaliana) (UniProt Q9LJD7)
T1 sequence: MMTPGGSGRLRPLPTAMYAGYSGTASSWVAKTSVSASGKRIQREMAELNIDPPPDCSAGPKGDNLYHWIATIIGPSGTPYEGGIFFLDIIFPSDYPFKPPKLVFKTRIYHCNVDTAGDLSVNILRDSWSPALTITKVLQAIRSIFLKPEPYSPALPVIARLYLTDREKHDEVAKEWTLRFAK

T2: cYFP-COP10 (BiFC construct) (Arabidopsis thaliana) (UniProt Q9LJD7)
T2 sequence: T1 sequence

B1: GIGANTEA (GI), full-length, two-hybrid prey (protein, UniProt Q9SQI2 1-1173)
chain: MASSSSSERWIDGLQFSSLLWPPPRDPQQHKDQVVAYVEYFGQFTSEQFPDDIAELVRHQYPSTEKRLLDDVLAMFVLHHPEHGHAVILPIISCLIDGSLVYSKEAHPFASFISLVCPSSENDYSEQWALACGEILRILTHYNRPIYKTEQQNGDTERNCLSKATTSGSPTSEPKAGSPTQHERKPLRPLSPWISDILLAAPLGIRSDYFRWCSGVMGKYAAGELKPPTIASRGSGKHPQLMPSTPRWAVANGAGVILSVCDDEVARYETATLTAVAVPALLLPPPTTSLDEHLVAGLPALEPYARLFHRYYAIATPSATQRLLLGLLEAPPSWAPDALDAAVQLVELLRAAEDYASGVRLPRNWMHLHFLRAIGIAMSMRAGVAADAAAALLFRILSQPALLFPPLSQVEGVEIQHAPIGGYSSNYRKQIEVPAAEATIEATAQGIASMLCAHGPEVEWRICTIWEAAYGLIPLNSSAVDLPEIIVATPLQPPILSWNLYIPLLKVLEYLPRGSPSEACLMKIFVATVETILSRTFPPESSRELTRKARSSFTTRSATKNLAMSELRAMVHALFLESCAGVELASRLLFVVLTVCVSHEAQSSGSKRPRSEYASTTENIEANQPVSNNQTANRKSRNVKGQGPVAAFDSYVLAAVCALACEVQLYPMISGGGNFSNSAVAGTITKPVKINGSSKEYGAGIDSAISHTRRILAILEALFSLKPSSVGTPWSYSSSEIVAAAMVAAHISELFRRSKALTHALSGLMRCKWDKEIHKRASSLYNLIDVHSKVVASIVDKAEPLEAYLKNTPVQKDSVTCLNWKQENTCASTTCFDTAVTSASRTEMNPRGNHKYARHSDEGSGRPSEKGIKDFLLDASDLANFLTADRLAGFYCGTQKLLRSVLAEKPELSFSVVSLLWHKLIAAPEIQPTAESTSAQQGWRQVVDALCNVVSATPAKAAAAVVLQAERELQPWIAKDDEEGQKMWKINQRIVKVLVELMRNHDRPESLVILASASDLLLRATDGMLVDGEACTLPQLELLEATARAIQPVLAWGPSGLAVVDGLSNLLKCRLPATIRCLSHPSAHVRALSTSVLRDIMNQSSIPIKVTPKLPTTEKNGMNSPSYRFFNAASIDWKADIQNCLNWEAHSLLSTTMPTQFLDTAARELGCTISLSQ
B2: GI N-terminal region (aa 1-507), two-hybrid prey (domain or fragment, UniProt Q9SQI2 1-507)
chain: MASSSSSERWIDGLQFSSLLWPPPRDPQQHKDQVVAYVEYFGQFTSEQFPDDIAELVRHQYPSTEKRLLDDVLAMFVLHHPEHGHAVILPIISCLIDGSLVYSKEAHPFASFISLVCPSSENDYSEQWALACGEILRILTHYNRPIYKTEQQNGDTERNCLSKATTSGSPTSEPKAGSPTQHERKPLRPLSPWISDILLAAPLGIRSDYFRWCSGVMGKYAAGELKPPTIASRGSGKHPQLMPSTPRWAVANGAGVILSVCDDEVARYETATLTAVAVPALLLPPPTTSLDEHLVAGLPALEPYARLFHRYYAIATPSATQRLLLGLLEAPPSWAPDALDAAVQLVELLRAAEDYASGVRLPRNWMHLHFLRAIGIAMSMRAGVAADAAAALLFRILSQPALLFPPLSQVEGVEIQHAPIGGYSSNYRKQIEVPAAEATIEATAQGIASMLCAHGPEVEWRICTIWEAAYGLIPLNSSAVDLPEIIVATPLQPPILSWNLYIPLLKV
B3: GI C-terminal region (aa 801-1173), two-hybrid prey (domain or fragment, UniProt Q9SQI2 801-1173)
chain: LEAYLKNTPVQKDSVTCLNWKQENTCASTTCFDTAVTSASRTEMNPRGNHKYARHSDEGSGRPSEKGIKDFLLDASDLANFLTADRLAGFYCGTQKLLRSVLAEKPELSFSVVSLLWHKLIAAPEIQPTAESTSAQQGWRQVVDALCNVVSATPAKAAAAVVLQAERELQPWIAKDDEEGQKMWKINQRIVKVLVELMRNHDRPESLVILASASDLLLRATDGMLVDGEACTLPQLELLEATARAIQPVLAWGPSGLAVVDGLSNLLKCRLPATIRCLSHPSAHVRALSTSVLRDIMNQSSIPIKVTPKLPTTEKNGMNSPSYRFFNAASIDWKADIQNCLNWEAHSLLSTTMPTQFLDTAARELGCTISLSQ
B4: GI middle region (aa 401-907), two-hybrid prey (domain or fragment, UniProt Q9SQI2 401-907)
chain: ALLFPPLSQVEGVEIQHAPIGGYSSNYRKQIEVPAAEATIEATAQGIASMLCAHGPEVEWRICTIWEAAYGLIPLNSSAVDLPEIIVATPLQPPILSWNLYIPLLKVLEYLPRGSPSEACLMKIFVATVETILSRTFPPESSRELTRKARSSFTTRSATKNLAMSELRAMVHALFLESCAGVELASRLLFVVLTVCVSHEAQSSGSKRPRSEYASTTENIEANQPVSNNQTANRKSRNVKGQGPVAAFDSYVLAAVCALACEVQLYPMISGGGNFSNSAVAGTITKPVKINGSSKEYGAGIDSAISHTRRILAILEALFSLKPSSVGTPWSYSSSEIVAAAMVAAHISELFRRSKALTHALSGLMRCKWDKEIHKRASSLYNLIDVHSKVVASIVDKAEPLEAYLKNTPVQKDSVTCLNWKQENTCASTTCFDTAVTSASRTEMNPRGNHKYARHSDEGSGRPSEKGIKDFLLDASDLANFLTADRLAGFYCGTQKLLRSVLAEKPE
B5: nYFP-GI (BiFC construct) (protein, UniProt Q9SQI2 1-1173)
chain: B1 chain

biological target: T1, CONSTITUTIVE PHOTOMORPHOGENIC 10 (COP10), full-length, two-hybrid bait in pGBKT7 (Arabidopsis thaliana); assay: two-hybrid; … GAL4 system 3, yeast AH109; COP10 in pGBKT7 as bait, partners in pGADT7 as prey; growth on medium lacking adenine, leucine, histidine and tryptophan; CPRG beta-galactosidase assay

binding	Molecule
binds	B1
binds	B2
binds	B3
no binding	B4

biological target: T2, cYFP-COP10 (BiFC construct) (Arabidopsis thaliana); assay: split reporter; BiFC, nEYFP and cEYFP fusion plasmids co-bombarded 1:1 into onion epidermal cells; MG132, 16-24 h at 22 °C in the dark; confocal microscopy

binding	Molecule
binds	B5

biological target: T1, CONSTITUTIVE PHOTOMORPHOGENIC 10 (COP10), full-length, two-hybrid bait in pGBKT7 (Arabidopsis thaliana); assay: two-hybrid; … GAL4 system 3, yeast AH109; COP10 in pGBKT7 as bait, partners in pGADT7 as prey; growth on medium lacking adenine, leucine, histidine and tryptophan; CPRG beta-galactosidase assay; remark: another data set of the same source

binding	Molecule
no binding	FLOWERING LOCUS C (FLC), two-hybrid prey (from UniProt Q9S7Q7 1-196)
no binding	…O2 (TEM2), two-hybrid prey (from UniProt P82280 1-352)
no binding	SHORT … PHASE (SVP), two-hybrid prey (from UniProt Q9FVC1 1-240)
no binding	…O1 (TEM1), two-hybrid prey (from UniProt Q9C6M5 1-361)
